# Data published in PubChem BioAssay AID504832 (National Center for Advancing Translational Sciences (NCATS), 2011).
# “And” between values parts separate entries of the source, which are not always exact repeats. Identical values can stand only once. Screen size: about 310,000 compounds; about 18,000 (5.8%) were called active. The shares of active, inactive and inconclusive entries below differ from those in the screen. Calls come from the whole dose curve; as a rule, active = well fitted inhibition curve with a large enough effect; inconclusive = small, poorly fitted or top-dose-only effect, or another doubt; inactive = no such curve, though single readings can be large or run the other way. A potency beside an inconclusive call is a rough fit, not a confirmed value.
# Assay: Primary qHTS for delayed death inhibitors of the malarial parasite plastid, 48 hour incubation
# Conditions: P. falciparum luciferase growth in erythrocytes; series mostly up to 28.7 µM
# How it was run: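 Luminescence readout; reporter = integrated firefly luciferase in P. falciparum. RBC culture at 2% hematocrit, 0.1% parasitemia final, 37 C/5% CO2; decreased signal taken as growth inhibition.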
# % is set by controls: 0 for no effect and ±100 for the full control effect; potency is the fitted concentration of half-maximal effect; tags give direction and shape of the fitted curve.
Structure (SMILES),Potency,"activity change, negative = inhibition"
CCOc1ccc(NC(=O)CSc2nnc(C3CC3)n2N)cc1,inactive,–
Cc1nnc2n1N=C(c1ccccc1)CS2,–,inactive: 1.87% [at 0.00184 µM]
COc1ccc(N(C(=O)c2snc(C(N)=O)c2N)C(C(=O)NC2CCCC2)c2ccc(OC)c(OC)c2)cc1 (stereo not drawn),"inconclusive: 13.1 µM [inhibitor, single point]",–
O=c1[nH][nH]cc1C=Nc1ccc(Cl)cc1Cl,"inconclusive: 0.37 µM [inhibitor, partial curve, poor fit]",–
OCCN(C=NC1=NN(c2cccc(C(F)(F)F)c2)CC1)CCO,inactive,–
Cc1cc(N2CCN(C3CCCCC3)CC2)nc2cccc(O)c12,active: 2.94 µM,–
COc1ccc(NC(=O)NCCN2CCN(c3cccc(Cl)c3)CC2)cc1,"inconclusive: 11.7 µM [inhibitor, single point]",–
CCCNC(=O)Cn1c(=O)/c(=C\c2ccc(-c3ccc([N+](=O)[O-])cc3)o2)s/c1=C\C(=O)C(C)(C)C,active: 9.28 µM,–
Cc1ccc(S(=O)(=O)N2CCN(C(=O)C3COc4ccccc4O3)CC2)cc1C (stereo not drawn),"inconclusive: 9.28 µM [inhibitor, partial curve, poor fit]",–
O=S(=O)(NCCC1=CCCCC1)c1cccc(S(=O)(=O)N2CCOCC2)c1,"inconclusive: 14.7 µM [inhibitor, partial curve, poor fit]",–
C[C@H](NC(=O)c1[nH]cnc1C(=O)Nc1cccc(Cl)c1)c1ccccc1,"inconclusive: 4.15 µM [inhibitor, single point]",–
Cc1cc(N2CCN(c3ccccc3)CC2)nc(N)n1,"inconclusive: 10.4 µM [inhibitor, single point]",–
COc1ccccc1CNC(=O)CN1C(=O)NC(C)(c2ccc(C)cc2)C1=O (stereo not drawn),inactive,–
CCNC(=S)N(CCc1c(C)[nH]c2ccc(Cl)cc12)Cc1ccco1,"inconclusive: 13.1 µM [inhibitor, single point]",–
COCCn1c(C)cc(C(=O)COC(=O)c2c(C)nn(Cc3ccccc3)c2C)c1C,"inconclusive: 11.7 µM [inhibitor, single point]",–
COc1ccc2c(C=Nc3c(C)n(C)n(-c4ccccc4)c3=O)c(O)n(Cc3ccco3)c(=O)c2c1,"inconclusive: 1.17 µM [inhibitor, partial curve, poor fit] and inconclusive: 2.62 µM [inhibitor, single point]",–
O=C(NC1CCCCCC1)c1cccs1,"inconclusive: 8.28 µM [inhibitor, partial curve]",–
COc1ccc(CN(CC(=O)NC(C)C)C(=O)CCC(=O)Nc2nccs2)cc1,"inconclusive: 18.5 µM [inhibitor, single point]",–
CCOC(=O)c1c(C)[nH]c(C)c1C(=O)COC(=O)/C=C/c1ccc(Cl)cc1,"inconclusive: 14.7 µM [inhibitor, partial curve]",–
O=C(CN1C(=O)c2cccnc2Oc2ccc(Cl)cc21)NCCC1=CCCCC1,"inconclusive: 10.4 µM [inhibitor, partial curve, poor fit]",–
CCOP(=O)(OCC)c1nc(-c2cccc3ccccc23)oc1NCc1ccc(OC)cc1,"inconclusive: 10.4 µM [inhibitor, partial curve, poor fit]",–
CCOC(=O)c1cc(-c2ccc(C)o2)nn1CCC#N,"inconclusive: 5.86 µM [inhibitor, partial curve, poor fit]",–

Structure (SMILES),Potency,"activity change, negative = inhibition"
O=S(=O)(NN=C1CCCCCC1)c1ccccc1,inactive,–
Cc1ccc(C2CC(c3cccs3)=NN2C(=O)CSC2=NCCS2)cc1 (stereo not drawn),active: 10.4 µM,–
O=C(CCn1cccc1)Nc1nccs1,inactive,–
CN1CCC(N(C)C(=O)/C(C#N)=C/c2ccc(OC(F)F)cc2)CC1,inactive,–
CCCSc1nc2cc(C)c(C)cc2n1CC(C)O (stereo not drawn),inactive,–
CCNC(=O)/C(C#N)=C/c1c(N2CCCCCC2)nc2c(C)cccn2c1=O,"inconclusive: 8.28 µM [inhibitor, partial curve]",–
CN1C(=O)CC(C(=O)Nc2ccc(F)cc2)SC1=Nc1ccc2c(c1)OCO2 (stereo not drawn),"inconclusive: 18.5 µM [inhibitor, single point]",–
CCNC(=S)NN=C1c2ccccc2-c2ccccc21,inactive,–
COCCCNC(=O)C1CCC(CNS(=O)(=O)c2ccc(OC)cc2)CC1 (stereo not drawn),"inconclusive: 18.5 µM [inhibitor, partial curve, poor fit]",–
CC(CCc1ccccc1)NS(=O)(=O)c1ccccc1 (stereo not drawn),"inconclusive: 0.586 µM [inhibitor, partial curve, poor fit]",–
CCc1ccc(NC(=O)c2ccc(NC(=O)C3CCCO3)cc2)cc1 (stereo not drawn),inactive,–
Cc1ccc(S(=O)(=O)c2cnc(-c3ccccc3)nc2N2CCN(C)CC2)cc1,"inconclusive: 14.7 µM [inhibitor, single point]",–
CCOc1ccc(CNC(=O)Cn2ccc3cc(S(=O)(=O)N4CCCCCC4)ccc32)cc1,"inconclusive: 14.7 µM [inhibitor, partial curve, poor fit]",–
COc1ccc(-c2nc(CS(=O)(=O)CC(=O)NCCc3cc(OC)ccc3OC)c(C)o2)cc1,"inconclusive: 9.28 µM [inhibitor, partial curve, poor fit]",–
CCOc1ccc(CC2c3cc(OCC)c(OCC)cc3CCN2C(=O)c2cc(OC)c(OC)c(OC)c2)cc1OCC (stereo not drawn),active: 1.47 µM,–
COc1cc2[nH]c(C(=O)Nc3ccc(F)cc3)cc2c(OC)c1OC,"inconclusive: 16.5 µM [inhibitor, partial curve, poor fit]",–
CCCOc1ccccc1NC(=O)CC1Nc2ccccc2NC1=O (stereo not drawn),active: 9.28 µM,–
N#Cc1c2ccc([N+](=O)[O-])cc2[n+]([O-])n1-c1ccccc1,active: 11.7 µM,–
CC(C)C(NC(=O)c1ccc(C(C)(C)C)cc1)C(=O)N1CCCC1 (stereo not drawn),"inconclusive: 8.28 µM [inhibitor, single point]",–
COC(=O)c1sccc1NC(=S)N1CCN(c2cc(C)ccc2C)CC1,active: 10.4 µM,–
CCOc1ccc(-c2cc(C(=O)NCCCN3CCN(CC)CC3)c3ccccc3n2)cc1,"inconclusive: 18.5 µM [inhibitor, single point]",–
